According to the supplement of paper PMC12217912:
The other results are listed elsewhere or left out. Sequences were assembled here from the parent chain. Values near 0.05 are background.

B1: TEV protease; numbered along this chain (parent)
chain: MGESLFKGPRDYNPISSSICHLTNESDGHTTSLYGIGFGPFIITNKHLFRRNNGTLVVQSLHGVFKVKDTTTLQQHLVDGRDMIIIRMPKDFPPFPQKLKFREPQREERICLVTTNFQTKSMSSMVSDTSCTFPSGDGIFWKHWIQTKDGQCGSPLVSTRDGFIVGIHSASNFTNTNNYFTSVPKNFMELLTNQEAQQWVSGWRLNADSVLWGGHKVFMVKPEEPFQPVKEATQL

Variants of: B1
Assay: raw area under fraction-flipped curve 0-4 h after induction (AUC4h, not background-subtracted), DNA-recorder readout of cleavage of the substrate (dimensionless); higher = more cleavage of the substrate by the protease variant
Conditions: temperature: 34 °C; time window: 0-4 h after rhamnose induction
Experimental: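 In vivo DNA recorder in E. coli TOP10(DE3) ΔrhaA at 34 °C. Each TEVp single-site mutant (parent TEVp 0) is paired with a single-site variant of the 7-mer TEVs (canonical ENLYFQ|S). The substrate sits between flexible linkers in a Bxb1-sfGFP-TEVs-SsrA fusion, so cleavage stabilises Bxb1 and speeds flipping of a recombination array, read by NGS. The value is the raw area under the fraction-flipped curve over 0-4 h after rhamnose induction (AUC4h), with ≥20 reads per time point. It is not background-subtracted; inactive controls average about 0.047.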
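Further: Bxb1 expression induced with 0.2% (w/v) L-rhamnose at OD600 near 0.5, cultures sampled hourly, flipped fraction per protease–substrate barcode pair counted by paired-end Illumina sequencing.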

| Variant | area with substrate ENLAFQS | area with substrate ENLDFQS | area with substrate ENLEFQS | area with substrate ENLFFQS | area with substrate ENLGFQS | area with substrate ENLHFQS | area with substrate ENLIFQS | area with substrate ENLLFQS | area with substrate ENLNFQS | area with substrate ENLPFQS | area with substrate ENLRFQS | area with substrate ENLTFQS | area with substrate ENLVFQS | area with substrate ENLWFQS | area with substrate ENLKFQS | area with substrate ENLQFQS | area with substrate ENLSFQS | area with substrate ENLCFQS | area with substrate ENLMFQS |
| --- | --- | --- | --- | --- | --- | --- | --- | --- | --- | --- | --- | --- | --- | --- | --- | --- | --- | --- | --- |
| N13D | 0.123 | 0.06 | 0.0746 | 0.0784 | 0.0945 | 0.0709 | 0.0871 | 0.0663 | 0.0661 | 0.0501 | 0.0679 | 0.0796 | 0.0717 | 0.0734 | – | – | – | – | – |
| P14R | 0.0285 | 0.0438 | 0.0552 | 0.0867 | – | – | 0.0859 | – | 0.0746 | 0.0506 | 0.0801 | – | 0.0788 | 0.0476 | 0.086 | 0.0637 | 0.0783 | – | – |
| I15A | 0.0586 | 0.0524 | 0.0624 | 0.0898 | 0.0679 | 0.0626 | 0.0697 | 0.0731 | 0.0587 | 0.0844 | 0.0751 | – | – | – | 0.0751 | 0.0717 | 0.0599 | 0.0527 | 0.0684 |
| I15W | 0.0706 | 0.0724 | 0.065 | 0.081 | 0.0633 | 0.0485 | 0.0758 | 0.0731 | 0.0795 | 0.0577 | 0.0268 | – | 0.0926 | 0.0619 | 0.0737 | – | 0.0755 | 0.0611 | – |
| I15Y | 0.062 | 0.0612 | 0.0624 | 0.0796 | 0.055 | 0.066 | 0.0899 | – | 0.0698 | 0.0621 | 0.106 | – | – | – | 0.0783 | 0.0613 | 0.0603 | – | 0.0855 |
| S16W | 0.0728 | 0.0695 | 0.0671 | 0.0769 | – | 0.0635 | 0.0816 | 0.0617 | 0.0568 | 0.0678 | 0.0752 | 0.076 | 0.113 | 0.0794 | – | – | 0.055 | 0.0741 | 0.0676 |
| S17E | 0.087 | 0.0586 | 0.063 | 0.0873 | – | 0.0683 | 0.0881 | – | 0.0727 | 0.0628 | 0.0808 | 0.0719 | – | 0.064 | 0.0697 | – | 0.0597 | 0.0646 | – |
| S17H | 0.0596 | 0.0664 | 0.056 | 0.0889 | 0.0678 | 0.0728 | – | 0.0755 | 0.0653 | 0.0551 | 0.0739 | – | – | – | 0.082 | 0.0703 | 0.0621 | – | – |
| S17K | 0.081 | 0.0625 | – | 0.0845 | 0.0701 | 0.0763 | 0.0796 | – | 0.0614 | 0.0642 | 0.0715 | – | 0.1 | 0.0676 | 0.0871 | – | 0.0631 | 0.0765 | – |
| S17M | 0.0694 | 0.0579 | 0.0675 | 0.09 | 0.0611 | 0.0589 | 0.0777 | 0.0777 | 0.0844 | 0.0506 | 0.072 | – | 0.0853 | 0.0586 | 0.0736 | 0.0886 | 0.0702 | – | – |
| S17N | 0.0583 | 0.0583 | 0.0458 | 0.0737 | 0.0782 | 0.0721 | – | 0.0814 | 0.0568 | – | 0.0758 | – | 0.0974 | – | 0.0739 | 0.0679 | 0.0713 | – | 0.0741 |
| S17R | 0.0785 | 0.0547 | 0.0631 | 0.0807 | – | 0.108 | 0.116 | – | – | 0.073 | 0.0716 | – | 0.0964 | 0.069 | 0.0665 | 0.0522 | 0.0852 | – | – |
| S17V | 0.0422 | 0.0678 | 0.0595 | 0.0721 | – | 0.0679 | 0.0727 | 0.0627 | 0.0649 | 0.0777 | 0.0748 | – | 0.0684 | 0.0684 | 0.0595 | 0.0364 | 0.0663 | – | 0.0688 |
| S18I | 0.0586 | 0.0638 | – | 0.0763 | – | 0.0717 | – | 0.0482 | 0.0677 | 0.0575 | 0.0868 | – | – | – | 0.0694 | 0.0678 | – | 0.0624 | – |
| I19F | 0.0669 | 0.055 | 0.0725 | 0.0701 | – | 0.0528 | 0.0641 | 0.0656 | 0.0632 | 0.0672 | 0.043 | 0.0701 | – | 0.0674 | 0.0661 | 0.0742 | 0.07 | – | 0.0608 |
| I19L | 0.0596 | 0.0545 | 0.0602 | 0.107 | 0.0638 | 0.0708 | 0.0798 | 0.0894 | – | 0.0464 | 0.0834 | – | 0.105 | 0.0638 | 0.0875 | 0.072 | 0.0656 | 0.0781 | 0.071 |
| C20D | 0.0445 | 0.0499 | 0.0408 | 0.0398 | – | 0.0694 | – | 0.0448 | 0.0511 | – | 0.0471 | 0.0648 | – | 0.044 | 0.0522 | 0.0422 | 0.0392 | – | 0.0334 |
| C20T | 0.0681 | 0.064 | 0.0663 | 0.0761 | – | 0.0594 | 0.0772 | 0.0833 | 0.0512 | 0.0524 | – | – | 0.0721 | 0.105 | 0.0579 | 0.0898 | 0.0565 | 0.0572 | 0.0771 |
| C20V | 0.0372 | 0.0538 | 0.0653 | 0.0825 | 0.0835 | 0.0889 | 0.0997 | 0.0773 | 0.0723 | 0.047 | 0.0677 | – | 0.0755 | 0.0621 | 0.0892 | 0.0646 | 0.0678 | – | – |
| N24L | 0.0618 | 0.0616 | 0.0689 | 0.0682 | – | 0.0749 | 0.0785 | 0.0495 | 0.0723 | – | 0.085 | – | – | – | 0.0822 | 0.0752 | 0.0798 | – | 0.0689 |
| E25Q | 0.0643 | 0.0562 | 0.0714 | 0.0871 | 0.0637 | – | – | 0.0795 | 0.0534 | – | 0.0731 | – | 0.104 | 0.0599 | 0.072 | 0.0685 | 0.0576 | 0.057 | – |
| E25T | 0.0822 | – | 0.0608 | 0.0963 | – | – | 0.0995 | 0.0754 | 0.0671 | 0.0637 | – | – | – | – | 0.0818 | – | 0.055 | – | – |
| S26A | 0.0592 | 0.0689 | 0.0632 | 0.0648 | 0.0735 | 0.0577 | 0.0612 | 0.0701 | 0.0674 | 0.0771 | 0.0664 | – | 0.0649 | 0.0626 | 0.0705 | 0.0558 | 0.0614 | 0.0824 | – |
| S26G | 0.073 | – | 0.048 | 0.0686 | – | 0.0523 | – | – | – | 0.07 | 0.073 | – | – | – | – | – | – | – | 0.066 |
| S26T | 0.043 | 0.0567 | – | 0.108 | – | 0.0604 | – | 0.0723 | 0.0698 | 0.0476 | 0.0694 | – | – | 0.043 | 0.0729 | – | 0.0668 | 0.0572 | – |
